Results published in US20090022663A1 (published 2009).

Biological target: T1, purified recombinant 161P2F10B extracellular domain (Tag5-161P2F10B ECD, amino acids 46-875) (human, UniProt O14638 46-875)
T1 construct: also called full length ECD
Test: SPR (BIAcore), MAb captured on chip, recombinant 161P2F10B injected, 1:1 fit;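 also: purified human MAbs immobilised by capture on a CM5 chip surface, about 150 RU of antibody per cycle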

B1: H16-1.52 (antibody, V domains shown)
VH: [not shown - about 100 residues]DGYSSGWNYFDYWGQGTLVTVSS
VL: DIVMTQSPDSLAVSLGERATINCKSSQSVLYSSNNKNYLAWYQQKPGQPPKLLIYWASTRESGVPDRFSGSGSGTDFTLTISSLQAEDVAVYYCQEYYSTMCSFGQGTKLEIKR
Work on B1 yielded a koff of 1.2e-05 s⁻¹ and a kon of 900000 M⁻¹ s⁻¹.
